In article PMC10547799:
Numbering of substitutions follows the chain as printed. These are yes or no findings as the source states them, for the method shown. In cells and extracts the contact can be indirect. Some entries that bind do so weakly or less than the wild type. For some of these results: Sequences can lack the tags named with a protein.

Amino acid sequences for entries named in this document (tags omitted).
UniProt Q93009: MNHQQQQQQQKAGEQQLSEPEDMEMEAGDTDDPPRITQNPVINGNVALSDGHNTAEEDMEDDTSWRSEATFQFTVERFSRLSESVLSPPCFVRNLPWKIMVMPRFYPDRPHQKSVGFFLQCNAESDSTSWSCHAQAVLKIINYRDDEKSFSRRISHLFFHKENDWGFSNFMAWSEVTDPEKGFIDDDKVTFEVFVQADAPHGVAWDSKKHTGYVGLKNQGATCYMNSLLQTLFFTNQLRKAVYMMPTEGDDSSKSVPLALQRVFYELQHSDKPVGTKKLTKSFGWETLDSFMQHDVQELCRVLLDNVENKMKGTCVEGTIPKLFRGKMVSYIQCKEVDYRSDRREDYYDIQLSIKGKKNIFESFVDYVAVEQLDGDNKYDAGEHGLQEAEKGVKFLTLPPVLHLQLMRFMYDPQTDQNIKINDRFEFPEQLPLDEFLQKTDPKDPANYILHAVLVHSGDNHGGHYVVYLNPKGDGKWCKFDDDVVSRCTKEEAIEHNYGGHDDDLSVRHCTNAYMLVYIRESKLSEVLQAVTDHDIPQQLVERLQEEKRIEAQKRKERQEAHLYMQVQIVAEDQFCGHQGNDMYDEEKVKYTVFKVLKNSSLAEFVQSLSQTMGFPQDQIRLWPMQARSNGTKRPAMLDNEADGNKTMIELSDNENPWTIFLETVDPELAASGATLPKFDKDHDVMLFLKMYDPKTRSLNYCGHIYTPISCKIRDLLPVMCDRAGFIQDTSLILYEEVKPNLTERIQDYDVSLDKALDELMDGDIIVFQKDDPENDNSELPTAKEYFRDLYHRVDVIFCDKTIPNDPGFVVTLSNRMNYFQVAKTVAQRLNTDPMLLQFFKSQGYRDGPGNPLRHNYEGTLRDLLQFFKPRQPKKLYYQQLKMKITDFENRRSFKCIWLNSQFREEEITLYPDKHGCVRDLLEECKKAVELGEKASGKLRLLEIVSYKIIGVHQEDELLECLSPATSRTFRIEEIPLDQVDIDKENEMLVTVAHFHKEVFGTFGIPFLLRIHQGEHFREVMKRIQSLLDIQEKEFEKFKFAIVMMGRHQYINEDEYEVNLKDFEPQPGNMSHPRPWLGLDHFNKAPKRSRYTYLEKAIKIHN

Legend:
UHRF1-His [1] = target: T1, UHRF1-His (UniProt Q96T88); experiment: co-IP; DU145 transfected with UHRF1-His wild type or S265 mutants for 72 h; IP anti-His, blot for USP7
T1 sequence: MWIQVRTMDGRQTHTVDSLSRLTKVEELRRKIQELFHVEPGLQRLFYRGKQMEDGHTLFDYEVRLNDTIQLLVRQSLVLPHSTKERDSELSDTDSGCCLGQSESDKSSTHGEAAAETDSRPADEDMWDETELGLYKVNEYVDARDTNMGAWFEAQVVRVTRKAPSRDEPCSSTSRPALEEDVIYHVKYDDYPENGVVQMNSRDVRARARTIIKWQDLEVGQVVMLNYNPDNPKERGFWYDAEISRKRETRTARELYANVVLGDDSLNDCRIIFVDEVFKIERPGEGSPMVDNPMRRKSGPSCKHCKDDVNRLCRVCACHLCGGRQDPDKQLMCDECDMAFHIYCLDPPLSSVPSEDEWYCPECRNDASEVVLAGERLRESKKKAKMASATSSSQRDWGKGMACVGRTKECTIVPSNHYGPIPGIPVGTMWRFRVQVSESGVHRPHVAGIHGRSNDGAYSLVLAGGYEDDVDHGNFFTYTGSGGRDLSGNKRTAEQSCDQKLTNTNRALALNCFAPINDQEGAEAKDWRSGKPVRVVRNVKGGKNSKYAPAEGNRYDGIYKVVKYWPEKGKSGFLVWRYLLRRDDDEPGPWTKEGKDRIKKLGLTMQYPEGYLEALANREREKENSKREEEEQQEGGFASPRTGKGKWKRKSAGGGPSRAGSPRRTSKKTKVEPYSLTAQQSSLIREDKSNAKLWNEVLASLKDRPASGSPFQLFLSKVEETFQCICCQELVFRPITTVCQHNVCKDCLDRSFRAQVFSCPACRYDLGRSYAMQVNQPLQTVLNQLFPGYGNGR

UHRF1(S265D)-His = target: T2, UHRF1(S265D)-His (UniProt Q96T88); experiment: as above
T2 sequence: T1 sequence with S265D

UHRF1-His [2] = target: T1, UHRF1-His; experiment: co-IP; DU145 co-transfected with the indicated plasmids and PLK1 siRNAs for 72 h (PLK1 knocked down); IP anti-His, blot for USP7
GST-UHRF1 = target: T3, GST-UHRF1 (UniProt Q96T88); experiment: pull-down; GST-UHRF1 proteins (wild type, truncations or mutants) immobilised on glutathione beads, incubated with DU145 cell lysates; western blot for PLK1 or USP7; only the target purified
T3 sequence: T1 sequence

[3] = target: T4, GST-UHRF1 SRA domain-containing fragment 414-723aa (UniProt Q96T88); experiment: as above
T4 sequence: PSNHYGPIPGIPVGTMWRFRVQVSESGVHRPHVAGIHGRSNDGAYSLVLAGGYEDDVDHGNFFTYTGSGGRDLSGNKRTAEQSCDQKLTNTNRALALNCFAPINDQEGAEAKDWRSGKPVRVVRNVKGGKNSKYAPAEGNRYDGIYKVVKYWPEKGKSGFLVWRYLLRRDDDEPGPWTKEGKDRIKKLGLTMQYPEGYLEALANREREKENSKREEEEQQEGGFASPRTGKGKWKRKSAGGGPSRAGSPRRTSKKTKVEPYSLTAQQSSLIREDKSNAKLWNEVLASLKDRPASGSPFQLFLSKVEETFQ

[4] = target: T5, UHRF1 (endogenous) (human (endogenous in DU145 and BT549)) (UniProt Q96T88); experiment: co-IP; endogenous proteins, DU145 and BT549 lysates; IP with anti-PLK1 or anti-UHRF1; also DU145 synchronised at G1/S by double thymidine, released, or arrested in M phase with nocodazole (IP anti-UHRF1)
T5 sequence: T1 sequence

UHRF1-His [5] = target: T1, UHRF1-His; experiment: co-IP; HEK293T co-transfected with UHRF1-His and Flag-tagged PLK1 (full length or truncated); IP with anti-Flag or anti-His; RIPA extracts, antibody 4 °C 12 h, protein A/G magnetic beads; western blot

In the case of “USP7 (endogenous) (from UniProt Q93009 1-1102) (enzyme)”, the binding (UHRF1-His [1]) is reported as “binds”, the binding (UHRF1(S265D)-His) is reported as “binds” and the binding (UHRF1-His [2]) is reported as “no binding (condition: PLK1 knocked down with siRNA)”. The binding (GST-UHRF1) was “binds”.
“PLK1 (endogenous) (from UniProt P53350 1-603) (enzyme)” was tested, and the binding [3] was “binds” and the binding [4] was “binds”.
For “PLK1-Flag (from UniProt P53350 1-603) (enzyme)”, the binding (UHRF1-His [5]) was “binds”.
